# Results: paper PMC4336329 (PLoS ONE, 2015)
# Among all 310,000 compounds or so, about 2,200 (0.71%) showed an effect of 50% or more. Effects have a minus sign here. This is one part of the list.
# Target: human ether-à-go-go-related gene (hERG) potassium channel (human, UniProt Q12809)
# Experiment: primary screen, population patch clamp on CHO cells stably expressing hERG
# human ether-à-go-go-related gene (hERG) potassium channel, sequence (Q12809 whole entry, looked up): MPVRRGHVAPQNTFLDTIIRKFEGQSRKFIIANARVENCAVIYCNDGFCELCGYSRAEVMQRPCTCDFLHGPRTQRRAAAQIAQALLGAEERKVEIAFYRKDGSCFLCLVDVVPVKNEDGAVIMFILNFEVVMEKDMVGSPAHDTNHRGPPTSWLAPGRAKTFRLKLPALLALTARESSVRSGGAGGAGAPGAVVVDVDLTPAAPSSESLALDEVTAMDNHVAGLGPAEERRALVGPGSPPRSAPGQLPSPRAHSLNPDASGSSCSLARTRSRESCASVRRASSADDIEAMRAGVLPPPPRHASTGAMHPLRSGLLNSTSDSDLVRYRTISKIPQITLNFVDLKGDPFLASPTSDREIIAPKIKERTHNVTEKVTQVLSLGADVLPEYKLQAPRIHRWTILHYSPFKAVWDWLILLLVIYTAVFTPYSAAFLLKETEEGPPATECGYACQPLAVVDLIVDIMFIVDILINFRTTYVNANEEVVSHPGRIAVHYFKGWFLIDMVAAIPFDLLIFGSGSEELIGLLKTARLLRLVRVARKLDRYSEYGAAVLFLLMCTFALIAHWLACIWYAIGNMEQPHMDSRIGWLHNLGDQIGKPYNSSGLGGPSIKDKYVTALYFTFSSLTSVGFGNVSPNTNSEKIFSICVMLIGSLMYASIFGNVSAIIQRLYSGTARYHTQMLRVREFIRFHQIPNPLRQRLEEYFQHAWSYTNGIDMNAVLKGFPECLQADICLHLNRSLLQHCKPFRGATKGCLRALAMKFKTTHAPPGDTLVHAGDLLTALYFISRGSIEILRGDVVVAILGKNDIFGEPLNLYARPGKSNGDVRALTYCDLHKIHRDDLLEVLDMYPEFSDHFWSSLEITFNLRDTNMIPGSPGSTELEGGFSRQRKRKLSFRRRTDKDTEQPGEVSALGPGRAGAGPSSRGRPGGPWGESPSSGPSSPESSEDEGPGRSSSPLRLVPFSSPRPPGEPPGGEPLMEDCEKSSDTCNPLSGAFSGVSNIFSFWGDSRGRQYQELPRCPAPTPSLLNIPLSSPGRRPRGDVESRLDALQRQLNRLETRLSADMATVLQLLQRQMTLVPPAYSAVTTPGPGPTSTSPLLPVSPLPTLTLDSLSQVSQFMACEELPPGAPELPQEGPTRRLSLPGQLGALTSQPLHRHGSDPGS
row,Compound,"hERG current change (%, negative = inhibition) at 1uM"
1,COC(=O)c1cc(S(=O)(=O)NCC2CCN(CCc3ccc(OC)cc3)CC2)cn1C,-17.5%
2,COc1ccccc1/C=C1\SC(=S)N(CCC(=O)NNC(=O)c2ccccc2O)C1=O,-9.01%
3,CCSc1nnc(-c2c[nH]c3ccccc23)o1,6.31%
4,Cc1cccc(Cn2nnc3ccccc32)c1O,11.6%
5,COCCN1CC(O)=C(c2nc3ccccc3c(=O)[nH]2)C1=N,16.9%
6,CN(C)c1ccc(C(=O)NCCCSc2ccccc2)cc1,1.77%
7,O=C1CCCCc2sc(Br)c([N+](=O)[O-])c2N1,12%
8,CN(C)c1nc(N)nc(CSc2nnnn2-c2cccc3ccccc23)n1,-3.13%
9,COc1cccc(-n2nnnc2SCC(=O)Nc2ccc(C(C)=O)cc2)c1,12.9%
10,Cc1ccc(C)c(OCc2cc(C(=O)NC(C)c3cnn(C)c3)no2)c1 (centres unmarked),16.9%
11,O=[N+]([O-])c1cccc(-c2ccc(CN3CCN(c4ccccc4)CC3)o2)c1,12.3%
12,Cc1cccc(Nc2ncnc3onc(-c4ccc(F)cc4)c23)c1C,10.2%
13,Cc1ccccc1NC(=O)c1ccccc1-c1ccccc1,4.81%
14,COCCNC(=O)NC(=O)CN1CCCc2ccccc21,5.42%
15,C=CCCN([C@@H](C)C(=O)OC)S(=O)(=O)c1ccccc1Br,5.26%
16,COc1ccccc1N1CCN(C(=O)CSc2nc(C)c(Cc3ccccc3)c(=O)[nH]2)CC1,-0.0558%
17,COc1ccc2[nH]cc(CCNC(C)=O)c2c1,2.27%
18,CCOC(=O)c1c(NC(=O)COC(=O)c2ccncc2)sc(C)c1C,3.73%
19,Cc1ccc(NCC(=O)Nc2cccc(S(=O)(=O)N(C)C)c2)cc1S(=O)(=O)N1CCCCCC1,6.36%
20,CCOC(=O)c1nnn(-c2nc(OC)nc(N(C)C)n2)c1-c1ccccc1,4.98%
21,O=C(C[n+]1cc(-c2ccc(F)cc2)n2c1CCC2)N1c2ccccc2Sc2ccccc21.[Cl-],11.1%
22,Cc1cccc(OCC(=O)Nc2cc(S(=O)(=O)N3CCCCC3)ccc2N2CCN(C)CC2)c1,-15.6%

row,Compound,"hERG current change (%, negative = inhibition) at 1uM"
1,N#Cc1ccccc1Sc1ccccc1C(=O)OCC(=O)N1CCN(C(=O)c2ccco2)CC1,11.4%
2,COCCCNC(=O)Cn1c(=O)n(Cc2ccc(F)cc2)c(=O)c2sccc21,13.9%
3,CCOC(=O)c1sc(/N=C/c2c(O)n(-c3cccc(C)c3)c(=O)[nH]c2=O)c(C#N)c1C,11.4%
4,CCOC(=O)CSC1=Nc2ccccc2C2=NC(CC(=O)NCc3ccccc3)C(=O)N12 (centres unmarked),-1.65%
5,O=c1cc(CS(=O)(=O)c2ccccc2)nc(-c2ccncc2)[nH]1,11.3%
6,CCCCCCn1c(=O)c(C(=O)Nc2ncccc2O)c(O)c2ccccc21,5.73%
7,Cc1cc(C)cc(N2C(=O)CN(Cc3ccccc3)C2=S)c1,2.11%
8,O=C(O)CSc1nnc(NC(=O)c2ccc3c(c2)OCO3)s1,13.1%
9,COc1ccccc1OCCN(C#N)c1nc(N(C)C)nc(N(C)C)n1,17.3%
10,Cc1cccc(OCc2nnc(SCC(=O)N3c4ccccc4CC3C)n2C)c1C (centres unmarked),6.31%
11,Cc1ccc(/C=C(\NC(=O)c2ccc(C)cc2)c2nc(=S)[nH][nH]2)cc1,2.34%
12,Cc1ccc(S(=O)(=O)N2CCN(C(=O)C(Cc3ccccc3)NC(=O)c3ccccc3)CC2)cc1 (centres unmarked),-5.13%
13,O=C(Cn1c(CO)nc2ccccc21)NCCc1ccccc1,3.12%
14,S=C(N/N=C/c1ccccc1Cl)Nc1cccc(Cl)c1Cl,8.18%
15,CCc1ccccc1NC(=O)C1CCCN1C(=O)Nc1ccc(C)cc1 (centres unmarked),13.3%
16,CCOc1ccc(Nc2cc(C)nc3nc(C)nn23)cc1,1.93%
17,Cc1cc(C(=O)COC(=O)c2ccccc2O)c(C)n1CC1CCCO1 (centres unmarked),-6.31%
18,O=S(=O)(c1ccc2nc(COc3ccc(Cl)cc3Cl)[nH]c2c1)N1CCOCC1,11%
19,CC(CCc1ccco1)NC(=O)c1cc2c(-c3ccccc3F)nn(C)c2s1 (centres unmarked),6.37%
20,C=CCNC(=S)NNC(=O)c1ccc(Br)cc1,11.2%
21,COc1ccc(CN(C(=O)c2ccco2)C2CC(C)N(C)CC2C)cc1 (centres unmarked),-14.9%
22,O=C(CN1C(=O)NC2(CCCCCCC2)C1=O)NCc1ccccc1Cl,12.6%
